Assay results: the supplement of paper PMC6531468
The other results are listed elsewhere or left out. Read counts after selection give these values, which scatter widely. Each score is taken over the longer molecules that contain the sequence shown.

target: IMP3 full-length (UniProt O00425); test: 6-mer SELEX enrichment z-score vs GST control; IMP3 is the RNA-binding protein IGF2BP3; higher = more enriched by binding; conditions: construct: FL IMP3 (1-579); SELEX round: R4
Protocol: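 SELEX-seq with GST-tagged full-length IMP3 and an N40 RNA pool, round 4. Each 6-mer is scored as an enrichment z-score of sequence tags containing it, normalised to the matching GST SELEX round. RNA written as DNA (T = U).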

Sequence of UniProt O00425 (O00425 whole entry): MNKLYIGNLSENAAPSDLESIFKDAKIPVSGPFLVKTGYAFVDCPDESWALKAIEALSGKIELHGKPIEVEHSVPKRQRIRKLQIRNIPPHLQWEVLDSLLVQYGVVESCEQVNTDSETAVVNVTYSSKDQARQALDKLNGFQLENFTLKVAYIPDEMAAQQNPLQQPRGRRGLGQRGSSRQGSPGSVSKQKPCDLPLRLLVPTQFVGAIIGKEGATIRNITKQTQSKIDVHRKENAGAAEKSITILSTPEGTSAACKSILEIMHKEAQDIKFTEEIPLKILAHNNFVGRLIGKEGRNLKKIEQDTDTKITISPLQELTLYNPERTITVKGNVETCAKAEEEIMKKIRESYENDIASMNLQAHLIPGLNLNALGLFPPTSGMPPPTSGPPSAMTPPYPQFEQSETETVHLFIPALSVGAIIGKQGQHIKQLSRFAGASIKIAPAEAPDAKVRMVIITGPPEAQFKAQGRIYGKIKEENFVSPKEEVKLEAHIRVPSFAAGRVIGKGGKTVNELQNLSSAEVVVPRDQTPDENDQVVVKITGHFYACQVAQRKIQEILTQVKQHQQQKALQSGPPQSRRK

Row | Sequence | 6-mer SELEX enrichment z-score
1 | TGAACA | 0.351
2 | TGACTC | -0.566
3 | AGCAGG | 1.12
4 | GAGCTC | 0.272
5 | GTTGTA | -0.219
6 | TCCCTA | -0.617
7 | CTTTCT | 0.243
8 | CATGTC | 0.9
9 | TCCTAG | -0.238
10 | CGCATA | 0.704
11 | TTTTTG | 0.017
12 | TGTCTG | 0.085
13 | CAGCCT | -0.008
14 | TGCGAG | -0.355
15 | TTCCTG | -0.324
16 | TTCAAC | 0.733
17 | TAGGGT | 0.265
18 | ATGTTC | 0.162
19 | AACCTT | -1.26
20 | CACGAT | 0.334

Row | Sequence | 6-mer SELEX enrichment z-score
21 | AAGATT | -0.326
22 | TCGTCT | 0.267
23 | TTAGGA | 0.097
24 | TGTATA | 0.04
25 | CTGCCC | -1.03
26 | TTAGAA | -0.312
27 | CGAGAC | -1.08
28 | GGAAAC | -0.796
29 | GCATCT | 1.34
30 | CGAGCA | 0.433
31 | TCCTGT | -0.153
32 | AAGTGC | -0.301
33 | GCTTGC | 0.129
34 | GGCGGC | 1.77
35 | ACAATG | 0.602
36 | CGGGCT | 0.299
37 | GGAGCC | 0.007
38 | CACACC | 0.848
39 | TCTACG | -0.127
40 | TATAGG | 0.344
